In PubChem BioAssay AID602332 (National Center for Advancing Translational Sciences (NCATS), 2012):
The campaign covered roughly 420,000 compounds. About 75 (0.02%) were called active. Inconclusive results, whose numbers are uncertain, are shown with a selection of clear calls. Calls follow the shape of the dose curve; as a rule, active = well fitted activation curve with a large enough effect; inconclusive = small, poorly fitted or top-dose-only effect; inactive = no such curve, though single readings can be large or run the other way. Potencies of inconclusive entries are doubtful fits and often do not repeat.

Test: qHTS for Inducers of the Endoplasmic Reticulum Stress Response (ERSR) in Human Glioma: qHTS; also: nearly all actives have a fitted effect of over 35% in size; as to activation: % of control where 0% means no effect
Settings: U87-MG GRP78 promoter luciferase reporter, 16 h; activation: stronger effect = higher value
Summary of the method: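 Stably transfected U87-MG human glioma cells carrying a GRP78-based luminescent sensor were seeded at 1000 cells/well, pin-dosed with compounds and incubated 16 h. Luciferase reagent was then added, and end-point luminescence was read after 10 min at room temperature.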
Potency is read from the fitted curve at half-maximal effect; tags tell the direction and shape of the fitted curve.

Compound | activation | Potency
O=C(CCC(=O)N1CCOc2ccccc21)NCCCN1CCCCC1 | inactive: -5.81% | –
Cc1ccc([C@@H]2CC=C(C(=O)O)[C@H](c3ccc(Cl)cc3)N2S(=O)(=O)c2ccccc2C)cc1 | inactive: 5.31% | –
CCN1C(=O)N/C(=C/c2cc(C)n(Cc3ccccc3)c2C)C1=O | – | inconclusive: 50.1 µM [activator, partial curve, poor fit]
CCOC(=O)C(C)NC(=O)c1cc2c(=O)[nH]c3ccc(C)cc3c2s1 (stereo unspecified) | – | inconclusive: 28.2 µM [activator, single point]
CC(NC(=O)c1ccco1)c1nnc2n1CCN(Cc1ccc(Cl)cc1)CC2 (stereo unspecified) | – | inconclusive: 10 µM [activator, single point]
O=C(CN1C(=O)NC2(CCCCCCC2)C1=O)N1CCOCC1 | – | inconclusive: 10 µM [activator, partial curve]
CC(=O)Nc1ccc(NC(=O)C(C)OC(=O)c2ccc(N(C)C)cc2)cc1 (stereo unspecified) | – | inconclusive: 25.1 µM [activator, single point]
O=c1/c(=C/c2ccc([N+](=O)[O-])cc2)sc2n1CCCN=2 | – | inconclusive: 31.6 µM [activator, partial curve, poor fit]
Cc1ccc(-c2ccc(/C=C3/NC(=O)NC3=O)o2)cc1[N+](=O)[O-] | inactive: 3.47% | –
CCC(CC)C(=O)N(C)c1c(C)nc2c(OCCC3CCCCC3)cccn12 | – | inconclusive: 50.1 µM [activator, single point]
CN(Cc1ccccc1)C(=O)c1[nH]cnc1C(=O)N[C@@H](Cc1ccccc1)C(=O)OCc1ccccc1 | – | inconclusive: 35.5 µM [activator, partial curve, poor fit]
C/C(CC(=O)Nc1ccc(OCc2ccccc2)cc1)=N\NC(=O)C(=O)Nc1cccc(C)c1 | – | inconclusive: 7.08 µM [activator, full curve, poor fit]
CCCC(C)C(=O)Nc1ccc(Cl)cn1 (stereo unspecified) | – | inconclusive: 5.01 µM [activator, full curve]
Cn1c(SCC(=O)Nc2ccccc2F)nc2c([nH]c3ccccc32)c1=O | inactive: -0.242% | –
Cc1cccc(NC(=O)c2nc[nH]c2C(=O)N[C@@H](Cc2ccccc2)C(=O)OCc2ccccc2)c1 | – | inconclusive: 44.7 µM [activator, partial curve, poor fit]
CCCc1cc(=O)[nH]c2nnc(SCC(=O)Nc3ccc(NC(C)=O)cc3)n12 | inactive: -3.21% | –
COc1cccc(CNC(=O)c2ccc(Cl)c(S(=O)(=O)N3CCOCC3)c2)c1 | inactive: -4.31% | –
O=C(CN1C(=O)S/C(=C\C=C\c2ccccc2)C1=O)Nc1cccc(O)c1 | – | inconclusive: 10 µM [activator, partial curve, poor fit]
CC1(C)Cc2nc(-c3ccccc3)n3cnnc3c2CO1 | – | inconclusive: 10 µM [activator, single point]
O=C1CN(C(=O)c2ccccn2)c2ccccc2N1 | – | inconclusive: 63.1 µM [activator, single point]
COc1ccc(/C=N\NC(=O)COc2ccc(C(C)(C)C)cc2)cc1Cn1nc(C)cc1C | – | inconclusive: 17.8 µM [activator, full curve, poor fit]
Cc1ccc(-c2nc3ccccc3s2)cc1S(=O)(=O)N1CCOCC1 | inactive: -1.48% | –

Compound | activation | Potency
COc1ccc(-c2cc(NC(C)=O)c3ncc(-c4ccc(F)cc4)n3c2)cc1OC | – | inconclusive: 50.1 µM [activator, single point]
CCc1ccc(NC(=O)CSc2nnc(-c3ccccc3)n2C)cc1 | inactive: -3.14% | –
O=C(CCCCCN1C(=O)c2cccc3cccc(c23)C1=O)NO | – | inconclusive: 10 µM [activator, partial curve, poor fit]
COc1cccc(CN2CCCC(c3nc(-c4ccncc4)ncc3-c3ccccc3C)C2)c1O (stereo unspecified) | – | inconclusive: 12.6 µM [activator, partial curve, poor fit]
Cc1ccc(S(=O)(=O)N=C2SCCCS2)cc1 | – | inconclusive: 10 µM [activator, full curve, poor fit]
CC(=O)c1nnn(-c2nc(N3CCCC3)nc(N(c3ccccc3)c3ccccc3)n2)c1C | inactive: -0.701% | –
Cc1cccc(NCc2ccc(N(C)C)cc2)n1 | – | inconclusive: 10 µM [activator, single point]
Cc1cccnc1NC(=O)CCNS(=O)(=O)c1ccc2c(c1)c(=O)n(C)c(=O)n2C | inactive: -0.441% | –
COc1ccc(C)cc1NC(=O)NC1CCCc2ccccc21 (stereo unspecified) | inactive: -9.58% | –
O=[N+]([O-])c1ccc(NN=Cc2cccc3ccccc23)cc1 | inactive: -1.08% | –
O=C1/C(=C/c2cccnc2)Sc2ccccc21 | – | inconclusive: 44.7 µM [activator, partial curve, poor fit]
COc1cc(CNC(=O)Nc2nc(C(N)Cc3ccc(Cl)cc3)cs2)cc(OC)c1OC (stereo unspecified) | – | inconclusive: 17.8 µM [activator, single point]
CC[C@@H](C(=O)[C@@H](C)[C@@H](O)[C@H](C)CCc1ccc(C)c(O)c1C(=O)O)C1O[C@](CC)(C2CC[C@](O)(CC)[C@H](C)O2)C[C@@H]1C (stereo partly specified) | – | inconclusive: 44.7 µM [activator, single point]
O=C(NC1CC1)C1=C[C@H](c2ccc(Br)cc2)C[C@H](OCc2ccc(CO)cc2)O1 | inactive: -1.95% | –
O=C(CSc1nnc(Cc2cccs2)n1Cc1ccco1)Nc1cccc(Cl)c1 | inactive: -3.12% | –
Cc1ccc2oc(-c3ccc(NC(=O)CC(C)C)cc3)nc2c1 | inactive: 2.16% | –
N#C/C(=C\c1c(Oc2ccc(Cl)cc2)nc2ccccn2c1=O)C(=O)NC1CCS(=O)(=O)C1 (stereo unspecified) | – | inconclusive: 44.7 µM [activator, single point]
Cc1ccc(/C=C2\OC(=O)c3ccccc32)cc1 | – | inconclusive: 1.78 µM [activator, partial curve, poor fit]
CCc1ccc2c(-c3cccc(Cl)c3)nc(=O)n(CC)c2n1 | – | inconclusive: 52.1 µM [activator, partial curve, poor fit]
Cc1ccccc1-c1nc(C#N)c(N2CCC(C)CC2)o1 | – | inconclusive: 39.8 µM [activator, partial curve, poor fit]
O=C1c2ccccc2C(=O)C12OC2c1ccc(Cl)cc1Cl (stereo unspecified) | – | inconclusive: 25.1 µM [activator, single point]
O=C(/C=C/c1ccc(O)c(O)c1)c1ccc(O)cc1O | – | inconclusive: 44.7 µM [activator, partial curve, poor fit]

Compound | activation | Potency
CN(c1ccccc1)c1nc2ccsc2c(=O)s1 | – | inconclusive: 3.55 µM [activator, partial curve]
COc1ccc(S(=O)(=O)N2CCCCC2)cc1NC(=O)c1ccc(C)cc1 | – | inconclusive: 15.8 µM [activator, partial curve, poor fit]
Cc1ccc(C2=Nc3ccc(Br)cc3C(c3ccncc3)=NN2)cc1 | – | inconclusive: 14.1 µM [activator, full curve, poor fit]
Cc1nc2c(OCc3ccc(Cl)cc3Cl)cccn2c1N(C)CC1CC1 | – | inconclusive: 50.1 µM [activator, single point]
Cc1ccc(CNC(=O)c2cc3sccc3n2Cc2ccc(Cl)cc2)cc1 | inactive: 1.56% | –
O=c1oc(CCCO)cc2ccc(C#CC3(O)CCCCC3)cc12 | – | inconclusive: 50.1 µM [activator, single point]
CCC(=O)N1CCN(c2ccc(NC(=O)c3ccc([N+](=O)[O-])o3)cc2Cl)CC1 | – | inconclusive: 28.2 µM [activator, single point]
Oc1ccccc1C1C=C(c2ccc3c(c2)OCO3)NC(c2cccc(F)c2)N1 (stereo unspecified) | – | inconclusive: 22.4 µM [activator, single point]
O=C(/C=C/c1ccccc1Cl)c1ccc(O)cc1 | – | inconclusive: 31.6 µM [activator, single point]
Cc1onc(C(=O)Nc2sc3c(c2C#N)CCCC3)c1[N+](=O)[O-] | – | inconclusive: 50.1 µM [activator, single point]
Cc1ccccc1/C(N)=N/OC(=O)/C=C/c1ccccc1 | – | inconclusive: 2.51 µM [activator, full curve]
Cc1cccc(N2CCN(C(=O)NCc3noc4ccccc34)CC2)c1C | inactive: 3.19% | –
O=C(c1ccco1)N1CCN(Cc2ccccc2F)CC1 | inactive: -1.43% | –
CCOc1ccc(NC(=O)C(=O)NCCc2csc(-c3ccc(F)cc3)n2)cc1 | inactive: -3.2% | –
Cc1noc(NS(=O)(=O)c2ccc(N/C=C/C(=O)c3cccnc3)cc2)c1C | inactive: 2.51% | –
CCOC(=O)c1cnc(-c2ccccc2)nc1N(C)C | – | inconclusive: 11.2 µM [activator, partial curve, poor fit]
CN1CCN(c2ccnc(-c3ccoc3)n2)CC1 | inactive: 0.63% | –
Cc1ccc2c(c1)c(=O)c1ccccc1n2CCCC(=O)Nc1ccc(C)c(F)c1 | inactive: -1.28% | –
COc1cc(OC)cc(C2=NC3(CCC(C)CC3)NC2=S)c1 (stereo unspecified) | – | inconclusive: 50.1 µM [activator, single point]
O=C(NCC1CCCO1)c1cc(-c2ccccc2F)no1 (stereo unspecified) | – | inconclusive: 11.2 µM [activator, partial curve, poor fit]
Cc1ccc(CNc2oc(-c3ccco3)nc2C#N)cc1 | – | inconclusive: 28.2 µM [activator, single point]
CCOC(=O)C1=NN(c2ccccc2)C(=O)/C1=C\c1ccc(N(C)C)cc1 | – | inconclusive: 50.1 µM [activator, single point]
